Experimental data reported in paper PMC4336329 (PLoS ONE, 2015).
The campaign covered roughly 310,000 compounds. About 2,200 (0.71%) showed an effect of 50% or more. Effects have a minus sign here. The list shows a part of the results.

Biological target: human ether-à-go-go-related gene (hERG) potassium channel (human, UniProt Q12809)
Test: primary screen, population patch clamp on CHO cells stably expressing hERG

human ether-à-go-go-related gene (hERG) potassium channel, sequence (Q12809 whole entry, looked up): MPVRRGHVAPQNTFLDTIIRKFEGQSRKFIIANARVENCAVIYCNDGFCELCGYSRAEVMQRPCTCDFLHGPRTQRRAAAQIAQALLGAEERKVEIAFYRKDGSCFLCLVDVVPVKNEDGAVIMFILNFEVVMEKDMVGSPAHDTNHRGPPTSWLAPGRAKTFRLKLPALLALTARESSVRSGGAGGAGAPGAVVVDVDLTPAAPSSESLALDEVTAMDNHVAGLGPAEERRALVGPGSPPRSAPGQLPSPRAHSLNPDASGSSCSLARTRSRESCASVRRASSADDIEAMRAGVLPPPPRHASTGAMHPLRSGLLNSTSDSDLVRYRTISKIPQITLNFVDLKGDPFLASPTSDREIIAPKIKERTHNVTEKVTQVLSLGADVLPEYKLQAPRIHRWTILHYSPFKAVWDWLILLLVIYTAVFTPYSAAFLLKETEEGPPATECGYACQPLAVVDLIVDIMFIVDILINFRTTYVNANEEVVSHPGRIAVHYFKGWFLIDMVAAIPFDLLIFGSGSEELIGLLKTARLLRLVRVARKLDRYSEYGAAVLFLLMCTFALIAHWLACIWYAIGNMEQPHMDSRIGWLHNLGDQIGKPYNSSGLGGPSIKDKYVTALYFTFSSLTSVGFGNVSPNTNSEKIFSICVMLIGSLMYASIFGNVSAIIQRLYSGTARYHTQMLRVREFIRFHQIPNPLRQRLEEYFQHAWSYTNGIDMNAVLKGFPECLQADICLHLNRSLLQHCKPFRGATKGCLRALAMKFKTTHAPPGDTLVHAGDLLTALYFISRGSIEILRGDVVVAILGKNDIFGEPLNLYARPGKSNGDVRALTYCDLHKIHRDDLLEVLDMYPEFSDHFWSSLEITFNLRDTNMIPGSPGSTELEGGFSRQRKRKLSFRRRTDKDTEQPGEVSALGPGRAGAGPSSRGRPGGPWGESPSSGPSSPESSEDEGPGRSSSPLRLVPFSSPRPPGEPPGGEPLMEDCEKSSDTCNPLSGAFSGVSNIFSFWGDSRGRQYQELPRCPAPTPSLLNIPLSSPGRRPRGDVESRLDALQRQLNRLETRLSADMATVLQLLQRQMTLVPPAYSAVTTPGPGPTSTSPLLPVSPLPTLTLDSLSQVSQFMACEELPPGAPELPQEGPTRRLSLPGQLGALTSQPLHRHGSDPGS

Structure (SMILES) | hERG current change (%, negative = inhibition) at 1uM [%]
CCOC(=O)N1CCN(C(=O)c2ccc(CN(c3ccc(C)c(C)c3)S(C)(=O)=O)cc2)CC1 | 2.46
CCC(C)NCCOCCOc1ccc(Cl)c2ccccc12.O=C(O)C(=O)O (stereo not shown) | 6.37
CSCC[C@H](NC(=O)[C@H](Cc1ccccc1)n1c(=O)[nH]c2ccccc2c1=O)C(=O)N[C@@H](Cc1ccccc1)C(=O)O | 11.4
NC(=O)c1noc(C(=O)N(CC(=O)NC2CCCC2)Cc2ccc3c(c2)OCO3)c1N | 11.4
O=C(NN1C(=O)C2C(c3ccccc3)C=CC(c3ccccc3)C2C1=O)c1ccccc1 (stereo not shown) | 12.9
O=C(NC(=S)N1CCOCC1)c1cc2ccccc2o1 | 8.7
Cc1cccc(NC(=O)CSc2nnc(C)c(=O)n2N)c1C | 12.4
CC1(OC(=O)c2ccc(Cl)nc2)C(=O)C=C2C=C(c3ccsc3)OC=C2C1=O (stereo not shown) | 12.9
COc1ccc(NC(=O)CN(C)C(=O)c2cc3c(cc2Cl)N2CCCCCC2=NS3(=O)=O)cc1 | 19.5
CCOC(=O)C1CCN(C(=O)C2CCC(=O)N(CC3CCCCC3)C2)CC1 (stereo not shown) | 9.22
CSc1oc(-c2ccco2)nc1S(=O)(=O)c1ccc(C)cc1 | 15.8
O=C(/C=C/c1cccc([N+](=O)[O-])c1)NCCSCc1ccc(Cl)cc1 | 2.23
CCc1cc(=O)oc2cc(OCC(=O)N3CCC(C(=O)O)CC3)ccc12 | 9.74
COc1ccc(CN2CCC(N3CC(C)OC(C)C3)CC2)c(OC)c1.O=C(O)C(=O)O (stereo not shown) | 9.1
CCOC(=O)Cn1c(C)c(Br)c(COC)c(C#N)c1=O | 14.8
COc1ccc(CNC(=S)N/N=C(\C)c2ccc(OC)cc2)cc1 | 11.3
COc1ccc(-c2c(C(F)(F)F)oc3cc(OCC(=O)Nc4ccccc4C(F)(F)F)ccc3c2=O)cc1OC | 11.3
O=C1CNC(=S)N1CCc1ccccc1Cl | 12.3
CCOc1ccc(C(=O)NC(=S)Nc2ccccc2N2CCC(C)CC2)cc1[N+](=O)[O-] | 10.9
COc1cccc(C2=NN(C(C)=O)C(c3cccs3)C2)c1 (stereo not shown) | 16.3
C/C(=N/NC(=O)CNC(=O)Cc1ccc(Cl)cc1)c1ccco1 | 5.31
CCOc1ccc(-c2ccc(SCC)nn2)cc1 | 11.7
CS(=O)(=O)c1ccc2nc(NC(=O)Nc3cccc(Cl)c3)sc2c1 | 4.79
O=C(c1ccc(Cl)c(Cl)c1)c1cnc(Nc2ccccc2)s1 | 18
O=C(Cn1c(-c2ccccc2Cl)nc2ccccc21)Nc1cccc(Cl)c1 | 9.15
C=Cn1cc[n+](CC(=O)c2ccc(-c3ccccc3)cc2)c1.[Br-] | 11.3
Cc1ccnc(S(=O)(=O)Cc2ccc([N+](=O)[O-])cc2)n1 | 17.4
CCO[C@@H]1OC(C(=O)NC2CC2)=C[C@H](c2csc3ccccc23)[C@H]1CCCO | 1.65

Structure (SMILES) | hERG current change (%, negative = inhibition) at 1uM [%]
CN(C(=O)CN1C(=O)S/C(=C\c2cccc(Cl)c2)C1=O)C1CCS(=O)(=O)C1 (stereo not shown) | -3.42
COc1ccc(C(=O)[C@H]2[C@H]3C(=O)N(c4ccc(C)cc4)C(=O)[C@H]3C3C=CC=NN32)cc1 (stereo partly shown) | -6.28
CN(C)S(=O)(=O)c1cccc(C(=O)N2CCN(Cc3ccccc3)CC2)c1 | 7.04
CCOCCCNC(=O)c1ccc(CS(=O)(=O)c2cccc(C(F)(F)F)c2)o1 | 13.5
Cc1cccc(NC(=O)Nc2ccc(C#N)cc2)n1 | 8.9
COC(=O)c1cn(NC(=O)c2ccc(OC)c(OC)c2)c(=O)c2ccccc12 | 8.75
CC1=C(C)CC2C(C1)C(=O)c1ccc(Br)cc1S2(=O)=O (stereo not shown) | 3.11
COc1ccc(C2COC(=O)C2=N)c(NC(=O)c2ccc(Cl)cc2)c1 (stereo not shown) | -4.14
CCOC(=O)N1CCN(C(=O)COc2ccc3oc4c(c3c2)CCCC4)CC1 | -14
COc1ccc(-c2c(C)oc3c(CN4CCOCC4)c(O)ccc3c2=O)cc1 | 8.15
Cc1cnc(NC(=O)CSc2nnc3ncccn23)s1 | 8.75
COC(=O)Nc1cc(C)nc2ccccc12 | 12.3
Cc1cccc(OCCn2c(=O)n(C)c3ccccc32)c1 | -2.43
CCCn1c(C2CCCN2c2nc(-c3cccc(Br)c3)cs2)nc2ccccc21 (stereo not shown) | 10.7
COc1ccccc1C(=O)Nc1ccc2c3c(cccc13)CC2 | 6.43
CS(=O)(=O)N(CC(=O)Nc1ccc(F)cc1F)C1CCCCC1 | 7.77
COc1ccc(C2(CNC(C)=O)CCOCC2)cc1OC | 14.3
OCCNc1nnc(-c2ccccc2)c(-c2ccccc2)n1 | 12.6
CCCc1nnc(SCC(=O)N2CCCCC2C)n1CC (stereo not shown) | 6.21
CCCCNC(=O)N1CCN(C(c2ccccc2)c2ccccc2)CC1 | 12.2
CCCC1=[N+](CC(=O)c2ccccc2)CCn2cccc21.[Br-] | 15.8
CCN(CC)c1ccc(N=Cc2cc(Br)ccc2O)cc1 | 9.23
CCOC(=O)Nc1ccc2c(c1)N(C(=O)CN(C)C)c1ccccc1CC2.Cl | 10.9
CSCc1ccc(C(=O)NC(C)c2ccc(-n3ccnc3)cc2)cc1 (stereo not shown) | -10
COc1cc(/C=N/O)cc(Br)c1OCc1ccc(Cl)cc1 | 3.09
N=c1c(S(=O)(=O)c2ccc(Br)cc2)cc2c(=O)n3ccccc3nc2n1Cc1ccccc1 | 7.3
CCN(CCCNC(=O)COc1cc(=O)n(CC)c2ccccc12)Cc1ccccc1 | -4.81
